B1: TEV protease; numbered along this chain (parent)
chain: MGESLFKGPRDYNPISSSICHLTNESDGHTTSLYGIGFGPFIITNKHLFRRNNGTLVVQSLHGVFKVKDTTTLQQHLVDGRDMIIIRMPKDFPPFPQKLKFREPQREERICLVTTNFQTKSMSSMVSDTSCTFPSGDGIFWKHWIQTKDGQCGSPLVSTRDGFIVGIHSASNFTNTNNYFTSVPKNFMELLTNQEAQQWVSGWRLNADSVLWGGHKVFMVKPEEPFQPVKEATQL

The experiment covers variants of B1. Put plainly: raw area under fraction-flipped curve 0-4 h after induction (AUC4h, not background-subtracted), DNA-recorder readout of cleavage of the substrate (dimensionless); higher = more cleavage of the substrate by the protease variant. Particulars: temperature: 34 °C; time window: 0-4 h after rhamnose induction. On the procedure: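 In vivo DNA recorder in E. coli TOP10(DE3) ΔrhaA at 34 °C. Each TEVp single-site mutant (parent TEVp 0) is paired with a single-site variant of the 7-mer TEVs (canonical ENLYFQ|S). The substrate sits between flexible linkers in a Bxb1-sfGFP-TEVs-SsrA fusion, so cleavage stabilises Bxb1 and speeds flipping of a recombination array, read by NGS. The value is the raw area under the fraction-flipped curve over 0-4 h after rhamnose induction (AUC4h), with ≥20 reads per time point. It is not background-subtracted; inactive controls average about 0.047.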

The other results are listed elsewhere or left out. Sequences were assembled here from the parent chain. Values near 0.05 are background.
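Further: Bxb1 expression induced with 0.2% (w/v) L-rhamnose at OD600 near 0.5, cultures sampled hourly, flipped fraction per protease–substrate barcode pair counted by paired-end Illumina sequencing.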

Take MGESLLKGPRDYNPISSSICHLTNESDGHTTSLYGIGFGPFIITNKHLFRRNNGTLVVQSLHGVFKVKDTTTLQQHLVDGRDMIIIRMPKDFPPFPQKLKFREPQREERICLVTTNFQTKSMSSMVSDTSCTFPSGDGIFWKHWIQTKDGQCGSPLVSTRDGFIVGIHSASNFTNTNNYFTSVPKNFMELLTNQEAQQWVSGWRLNADSVLWGGHKVFMVKPEEPFQPVKEATQL [F6L]: the “area with substrate FNLYFQS” value is 0.0575, the “area with substrate GNLYFQS” value amounted to 0.0605, the “area with substrate HNLYFQS” value came to 0.0533 and the “area with substrate MNLYFQS” value amounted to 0.0585. The “area with substrate SNLYFQS” value came out at 0.0057, the “area with substrate TNLYFQS” value was found to be 0.0534, the “area with substrate WNLYFQS” value is 0.0594 and the “area with substrate YNLYFQS” value was 0.0723.
With MGESGFKGPRDYNPISSSICHLTNESDGHTTSLYGIGFGPFIITNKHLFRRNNGTLVVQSLHGVFKVKDTTTLQQHLVDGRDMIIIRMPKDFPPFPQKLKFREPQREERICLVTTNFQTKSMSSMVSDTSCTFPSGDGIFWKHWIQTKDGQCGSPLVSTRDGFIVGIHSASNFTNTNNYFTSVPKNFMELLTNQEAQQWVSGWRLNADSVLWGGHKVFMVKPEEPFQPVKEATQL [L5G], the “area with substrate FNLYFQS” value was found to be 0.0456, the “area with substrate HNLYFQS” value was 0.074, the “area with substrate KNLYFQS” value was determined as 0.0777 and the “area with substrate LNLYFQS” value worked out at 0.0844. The “area with substrate MNLYFQS” value is 0.0728, the “area with substrate PNLYFQS” value worked out at 0.0723, the “area with substrate RNLYFQS” value was 0.0944 and the “area with substrate SNLYFQS” value amounted to 0.0503. Besides, the “area with substrate VNLYFQS” value was 0.0696, the “area with substrate WNLYFQS” value turned out to be 0.0563 and the “area with substrate YNLYFQS” value amounted to 0.074.
As to MGESLFKGPRDYNPISSSICHLTNESDGHTTSLDGIGFGPFIITNKHLFRRNNGTLVVQSLHGVFKVKDTTTLQQHLVDGRDMIIIRMPKDFPPFPQKLKFREPQREERICLVTTNFQTKSMSSMVSDTSCTFPSGDGIFWKHWIQTKDGQCGSPLVSTRDGFIVGIHSASNFTNTNNYFTSVPKNFMELLTNQEAQQWVSGWRLNADSVLWGGHKVFMVKPEEPFQPVKEATQL [Y34D], the “area with substrate FNLYFQS” value was 0.0749, the “area with substrate INLYFQS” value came to 0.035, the “area with substrate KNLYFQS” value turned out to be 0.0551 and the “area with substrate MNLYFQS” value is 0.0611. Besides, the “area with substrate NNLYFQS” value was found to be 0.0628, the “area with substrate PNLYFQS” value worked out at 0.0553, the “area with substrate TNLYFQS” value amounted to 0.0771 and the “area with substrate WNLYFQS” value was found to be 0.0495. Also, the “area with substrate YNLYFQS” value was 0.0668.
As to MVESLFKGPRDYNPISSSICHLTNESDGHTTSLYGIGFGPFIITNKHLFRRNNGTLVVQSLHGVFKVKDTTTLQQHLVDGRDMIIIRMPKDFPPFPQKLKFREPQREERICLVTTNFQTKSMSSMVSDTSCTFPSGDGIFWKHWIQTKDGQCGSPLVSTRDGFIVGIHSASNFTNTNNYFTSVPKNFMELLTNQEAQQWVSGWRLNADSVLWGGHKVFMVKPEEPFQPVKEATQL [G2V], the “area with substrate FNLYFQS” value was 0.0631, the “area with substrate GNLYFQS” value is 0.0771, the “area with substrate HNLYFQS” value was determined as 0.0675 and the “area with substrate INLYFQS” value is 0.0462. The “area with substrate KNLYFQS” value amounted to 0.105, the “area with substrate PNLYFQS” value is 0.0734, the “area with substrate VNLYFQS” value was 0.0648 and the “area with substrate YNLYFQS” value worked out at 0.0881.
Consider MGESLFKGPRDYNPISSSICHLTNESDGHTTSLYGIGFGPFIITNKHLFRRNNGTLVVWSLHGVFKVKDTTTLQQHLVDGRDMIIIRMPKDFPPFPQKLKFREPQREERICLVTTNFQTKSMSSMVSDTSCTFPSGDGIFWKHWIQTKDGQCGSPLVSTRDGFIVGIHSASNFTNTNNYFTSVPKNFMELLTNQEAQQWVSGWRLNADSVLWGGHKVFMVKPEEPFQPVKEATQL [Q59W], for which the “area with substrate FNLYFQS” value turned out to be 0.0628, the “area with substrate HNLYFQS” value amounted to 0.0546, the “area with substrate INLYFQS” value is 0.0746 and the “area with substrate KNLYFQS” value was 0.0517. For the same variant, the “area with substrate PNLYFQS” value came to 0.0613, the “area with substrate QNLYFQS” value is 0.0981, the “area with substrate SNLYFQS” value amounted to 0.0608 and the “area with substrate TNLYFQS” value is 0.0752. Also, the “area with substrate WNLYFQS” value was found to be 0.0794.
MGESLFKGPRDYNPISSSICHLTNESDGHTTSLYGIGFGPEIITNKHLFRRNNGTLVVQSLHGVFKVKDTTTLQQHLVDGRDMIIIRMPKDFPPFPQKLKFREPQREERICLVTTNFQTKSMSSMVSDTSCTFPSGDGIFWKHWIQTKDGQCGSPLVSTRDGFIVGIHSASNFTNTNNYFTSVPKNFMELLTNQEAQQWVSGWRLNADSVLWGGHKVFMVKPEEPFQPVKEATQL [F41E]: the “area with substrate FNLYFQS” value is 0.043, the “area with substrate GNLYFQS” value is 0.0603, the “area with substrate LNLYFQS” value amounted to 0.0524 and the “area with substrate RNLYFQS” value turned out to be 0.0597. Besides, the “area with substrate SNLYFQS” value was 0.0527, the “area with substrate VNLYFQS” value stood at 0.0595 and the “area with substrate YNLYFQS” value came to 0.0539.
For the variant MGESLFKGPRDYNPISSSIIHLTNESDGHTTSLYGIGFGPFIITNKHLFRRNNGTLVVQSLHGVFKVKDTTTLQQHLVDGRDMIIIRMPKDFPPFPQKLKFREPQREERICLVTTNFQTKSMSSMVSDTSCTFPSGDGIFWKHWIQTKDGQCGSPLVSTRDGFIVGIHSASNFTNTNNYFTSVPKNFMELLTNQEAQQWVSGWRLNADSVLWGGHKVFMVKPEEPFQPVKEATQL [C20I], the “area with substrate FNLYFQS” value was 0.057, the “area with substrate GNLYFQS” value was 0.0409, the “area with substrate HNLYFQS” value was 0.055 and the “area with substrate KNLYFQS” value was 0.0677. Besides, the “area with substrate MNLYFQS” value amounted to 0.0898, the “area with substrate NNLYFQS” value was 0.0672, the “area with substrate QNLYFQS” value came to 0.0169 and the “area with substrate TNLYFQS” value was found to be 0.0616. Also, the “area with substrate VNLYFQS” value came to 0.0787, the “area with substrate WNLYFQS” value was 0.0611 and the “area with substrate YNLYFQS” value was 0.0681.
For MGESLFKGPRDYNPISSSICHLTNESDGHTTSLYGIGFGPFIITNKHLFTRNNGTLVVQSLHGVFKVKDTTTLQQHLVDGRDMIIIRMPKDFPPFPQKLKFREPQREERICLVTTNFQTKSMSSMVSDTSCTFPSGDGIFWKHWIQTKDGQCGSPLVSTRDGFIVGIHSASNFTNTNNYFTSVPKNFMELLTNQEAQQWVSGWRLNADSVLWGGHKVFMVKPEEPFQPVKEATQL [R50T], the “area with substrate FNLYFQS” value turned out to be 0.107, the “area with substrate HNLYFQS” value was determined as 0.0641, the “area with substrate INLYFQS” value was 0.146 and the “area with substrate LNLYFQS” value stood at 0.0651. Also, the “area with substrate MNLYFQS” value turned out to be 0.0786, the “area with substrate NNLYFQS” value was 0.0702, the “area with substrate SNLYFQS” value is 0.0634 and the “area with substrate TNLYFQS” value came to 0.0635. Besides, the “area with substrate VNLYFQS” value was determined as 0.0737, the “area with substrate WNLYFQS” value was determined as 0.0642 and the “area with substrate YNLYFQS” value was determined as 0.0639.
In the case of MGESLFKGPRDYNPISSSICHLTNESDGHTTSLYGIGFGPFIITNKHLTRRNNGTLVVQSLHGVFKVKDTTTLQQHLVDGRDMIIIRMPKDFPPFPQKLKFREPQREERICLVTTNFQTKSMSSMVSDTSCTFPSGDGIFWKHWIQTKDGQCGSPLVSTRDGFIVGIHSASNFTNTNNYFTSVPKNFMELLTNQEAQQWVSGWRLNADSVLWGGHKVFMVKPEEPFQPVKEATQL [F49T], the “area with substrate FNLYFQS” value is 0.0546, the “area with substrate HNLYFQS” value was determined as 0.073, the “area with substrate INLYFQS” value was 0.0499 and the “area with substrate LNLYFQS” value was determined as 0.057. The “area with substrate PNLYFQS” value turned out to be 0.0517, the “area with substrate QNLYFQS” value came out at 0.061, the “area with substrate RNLYFQS” value turned out to be 0.0485 and the “area with substrate SNLYFQS” value was found to be 0.0439. For the same variant, the “area with substrate TNLYFQS” value came to 0.0503, the “area with substrate WNLYFQS” value was determined as 0.0568 and the “area with substrate YNLYFQS” value is 0.0505.

For the origin of these results see the supplement of paper PMC12217912.
